Data: patent publication US11951175B2, “Bioconjugates containing sulfamide linkers for use in treatment” (priority 2016, dated 2024)

System: Karpas-299 cell xenograft model
Experiment: In vivo efficacy of cAC10 ADCs 112-114, Karpas-299 xenograft
Parameters: species or system CB.17 SCID mice
Details: 1 mg/kg i.v.; ADCs with sulfamide linker (113, 114) compared with PEG-linker ADC (112); FIG. 15
Experimental: CR female CB.17 SCID mice, 8- to 12-week-old at the beginning of the experimental phase, obtained from Charles River Laboratories, USA) were injected with 1×10^7 KARPAS-299 tumour cells in a 50% Matrigel subcutaneous in the flank (Karpas-299 cell xenograft model). When the tumour volume was in the range of 100-150 mm^3, groups of eight mice were injected i.v. with either vehicle, 112 (at 1 mg/kg), 113 (at 1 mg/kg), and 114 (1 mg/kg). Tumors were measured twice weekly.

B1: Conjugate 113: cAC10-(6-N3-GalNAc)2 13d conjugated with sulfamide-linker Val-Cit-PAB-MMAE compound 100, average DAR 1.88 (conjugate, chains of the INN, looked up)
heavy: QIQLQQSGPEVVKPGASVKISCKASGYTFTDYYITWVKQKPGQGLEWIGWIYPGSGNTKYNEKFKGKATLTVDTSSSTAFMQLSSLTSEDTAVYFCANYGNYWFAYWGQGTQVTVSA[no letters for human IgG1 constant region]
light: DIVLTQSPASLAVSLGQRATISCKASQSVDFDGDSYMNWYQQKPGQPPKVLIYAASNLESGIPARFSGSGSGTDFTLNIHPVEEEDAATYYCQQSNEDPWTFGGGTKLEIKRTVAAPSVFIFPPSDEQLKSGTASVVCLLNNFYPREAKVQWKVDNALQSGNSQESVTEQDSKDSTYSLSSTLTLSKADYEKHKVYACEVTHQGLSSPVTKSFNRGEC
modifications: sulfamide Val-Cit-PAB-MMAE, DAR 1.88
Question: B1 was tested. Which tumour volume did it give?
Answer: Its tumour volume is “significantly outperform”.
